Data published in article PMC6919601, “Identification of Plasmodium dipeptidyl aminopeptidase allosteric inhibitors by high throughput screening” (PLoS ONE, 2019).
Hit rate of the full screen: of about 110,000 compounds, about 230 (0.21%) showed an effect of 50% or more. The list shows a part of the results.

target: DPAP1 (Plasmodium falciparum, UniProt Q8IIJ9); experiment: primary screen, percent inhibition; read by cleavage of a fluorogenic dipeptide substrate; higher = more effect of the substance; design: species or system P. falciparum D10 trophozoite lysates; single well
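Note: 30 min substrate incubation versus DMSO and 10 µM JCP410 controls.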

Sequence of DPAP1 (Q8IIJ9 whole entry, looked up): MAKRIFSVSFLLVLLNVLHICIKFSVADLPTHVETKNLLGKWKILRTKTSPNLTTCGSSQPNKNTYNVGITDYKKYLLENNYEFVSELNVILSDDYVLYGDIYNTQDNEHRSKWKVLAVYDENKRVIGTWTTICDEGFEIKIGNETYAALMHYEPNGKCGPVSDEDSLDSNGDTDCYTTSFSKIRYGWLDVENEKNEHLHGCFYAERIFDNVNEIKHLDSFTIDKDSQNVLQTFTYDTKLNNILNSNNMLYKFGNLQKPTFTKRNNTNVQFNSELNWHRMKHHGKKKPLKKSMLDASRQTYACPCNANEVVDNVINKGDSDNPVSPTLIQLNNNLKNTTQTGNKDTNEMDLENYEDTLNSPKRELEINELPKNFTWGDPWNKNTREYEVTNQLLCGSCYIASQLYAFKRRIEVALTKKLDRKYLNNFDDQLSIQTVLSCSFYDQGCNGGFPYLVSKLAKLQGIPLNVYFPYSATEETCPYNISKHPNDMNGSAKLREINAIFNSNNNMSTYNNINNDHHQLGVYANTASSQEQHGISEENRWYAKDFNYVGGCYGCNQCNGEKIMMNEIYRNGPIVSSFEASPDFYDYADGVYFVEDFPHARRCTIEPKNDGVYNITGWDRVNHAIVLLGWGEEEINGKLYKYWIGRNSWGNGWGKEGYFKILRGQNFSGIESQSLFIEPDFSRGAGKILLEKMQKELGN

Row | Compound | % Inhibition @ 10 uM [%]
1 | CC(=O)c1ccc(NS(=O)(=O)c2ccc(Oc3ccccc3C)cc2)cc1 | -5.57
2 | COc1cccc(OC)c1C(=O)N1CCN(c2ccc(OCc3ccccc3)cc2)CC1 | -3.45
3 | CC1=C(C(=O)N2CCOCC2)C(c2ccccc2OC(C)C)C2=C(O)CCCC2=N1 (stereo not shown) | -3.23
4 | COc1ccc(C(=O)Nc2cc(S(=O)(=O)c3ccccc3)c(O)c(C)c2C)cc1 | 5.99
5 | COc1ccccc1C(=O)N1CCN(Cc2ccc(Cl)cc2)CC1 | -0.512
6 | Cc1c(C(=O)N2CCCC2)oc2c1-c1nn(CC(=O)NCCCN3CC(C)CC(C)C3)cc1CC2 (stereo not shown) | -0.517
7 | CCSc1nc(C2CC2)cc(-c2ccc(Cl)cc2)c1C#N | -0.294
8 | O=S(=O)(c1ccccc1)c1cccc(S(=O)(=O)N2CCCCC2)c1 | 6.31
9 | N#CC1=C(N)OC2=C(C(=O)CC(c3ccco3)C2)C1c1c[nH]nc1-c1ccc(F)cc1 (stereo not shown) | 1.35
10 | COc1ccc(CCNc2nc3c(c(=O)n(C)c(=O)n3C)n2Cc2cccc(F)c2)cc1OC | 3.06
11 | COC(=O)c1ccc(C(=O)N(CCN(C)C)c2nc3c(C)c(C)ccc3s2)cc1 | -0.0871
12 | O=C(Nc1cccc([N+](=O)[O-])c1)c1cccc(S(=O)(=O)Nc2ccccc2C(=O)O)c1 | -2.47
13 | O=C(NCc1ccccn1)Nc1cccc2ccccc12 | -2.41
14 | Clc1ccccc1N1CCN(Cc2ccc(Br)o2)CC1 | -5.57
15 | Cc1ccc2c(CNCCC3=CCCCC3)c(C(=O)O)n(Cc3ccc(F)cc3Cl)c2c1 | 0.181
16 | COc1ccc(-c2csc(/C(C#N)=C/c3ccccc3F)n2)cc1 | -3.44
17 | Cc1nn(CC(=O)NC2CCN(Cc3ccccc3)CC2)c(=O)c2cc3cc(F)ccc3n12 | -1.7
18 | O=C(NCC1CCCO1)NC1(C(F)(F)F)Oc2cc(Cl)c(Cl)cc2O1 (stereo not shown) | -1.2
19 | Cc1cccc(C)c1OCCNCC(C)O (stereo not shown) | -2.8
20 | COc1ccccc1OCC(=O)N1CCN(c2ccccc2)CC1 | 1.59
21 | CC1(C)CC(NC(=O)c2ccccc2C(=O)O)CC(C)(C)N1 | -5.44
22 | CC(=O)Nc1ccc2c(c1)ncn2-c1ccccc1 | 0.345
23 | CCc1nn(CCCC(=O)NCCCN2CCCC2=O)c(=O)c2cc3occc3n12 | -3.79
24 | COc1ccc(-c2cc(O)n(CCC#N)n2)cc1 | -0.0369
25 | Nc1nonc1C(=O)NCCc1ccccc1 | 1.03

Row | Compound | % Inhibition @ 10 uM [%]
26 | CCCOc1ccccc1/C=c1/sc2nc(=O)c(Cc3ccccc3)nn2c1=O | 1.91
27 | CCOC(=O)c1[nH]c2ccc(F)cc2c1N | 1.72
28 | c1ccc(-c2nnc(CN3CCCCC3)o2)cc1 | 3.74
29 | CN1C(=O)C2Cc3c([nH]c4ccccc34)C(c3ccc(Cl)cc3)N2C1=S (stereo not shown) | 1.66
30 | Cc1nn(-c2ccccc2)c(Cl)c1CO | -1.29
31 | CCCOc1ccc(C2C(C(=O)c3ccc4c(c3)CC(C)O4)=C(O)C(=O)N2Cc2ccco2)cc1 (stereo not shown) | 18.4
32 | O=S(=O)(NCc1cn2ccsc2n1)c1ccc2c(c1)OCCO2 | 4.14
33 | NC(=O)C1CCN(C(=O)CCCSc2nc(-c3ccco3)cc(C(F)(F)F)n2)CC1 | 10.8
34 | Cc1ccc(C(C)NC(=O)C2C3CCC(C3)C2C(=O)O)cc1C (stereo not shown) | 3.61
35 | COc1ccc(S(=O)(=O)Nc2ccc(Cl)cc2C(=O)c2ccccc2)cc1 | 2.92
36 | COc1ccc(CCNC(=O)c2oc3ccc4c(c3c2C)C(O)CC2(CCCC2)O4)cc1OC (stereo not shown) | 7.76
37 | COc1ccc(C(=O)Cn2cnc3c(C#N)c4n(c3c2=O)CCCCC4)cc1 | 15.9
38 | CCn1cc(C(=O)N(C)C2CCCCC2)c2cc(OC)c(OC)cc2c1=O | -4.86
39 | CC(C)C[C@H](NC(=O)c1ccc2ccccc2c1)C(=O)NCC#N | -5.2
40 | COc1ccc(NC2=C(Cl)C(=O)N(c3cccc(C)c3)C2=O)cc1 | -2.83
41 | CC(=O)N1CCc2c(sc3nc(SCc4cc(C)ccc4C)n(CC4CCCO4)c(=O)c23)C1 (stereo not shown) | 2.33
42 | CCC(C)NC(=O)c1nn2c(c1Cl)NC(c1ccc(OC)cc1)CC2C(F)(F)F (stereo not shown) | 0.751
43 | COc1ccc(OC)c(S(=O)(=O)N2CCOCC2)c1 | -4.98
44 | Cc1ccccc1C(=O)Nc1sc(C)c(C)c1C#N | -2.77
45 | N#CC1=C(N)Oc2[nH]nc(-c3ccc(Cl)cc3)c2C1c1cccs1 (stereo not shown) | -5.01
46 | O=C(Nc1cccc(C(F)(F)F)c1)c1cccnc1NCCO | -4.91
47 | COc1ccccc1CN1CCC(CN2CNc3c(c(=O)n(C)c(=O)n3C)C2)CC1 | 2.34
48 | COc1ccccc1C(=O)Nc1sc2c(c1C(=O)NCc1ccco1)CCC2 | 4.39
49 | CCOC(C(=O)O)(c1ccccc1)c1ccccc1 | 5.3
50 | Cc1ccc(Cn2c(SCC(N)=O)nc3c(oc4ccccc43)c2=O)cc1 | 1.45

Row | Compound | % Inhibition @ 10 uM [%]
51 | CN(Cc1ccc(Br)cc1)CC(O)c1ccccc1 (stereo not shown) | -3.42
52 | CCOC(=O)c1c(C)[nH]c(C)c1S(=O)(=O)NCC(=O)N1CCN(C2CCCC2)CC1 | -3.05
53 | Cc1occc1C(=O)Nc1cccc(NC(=O)c2ccoc2C)c1 | -3.41
54 | O=C(c1ccc2c(c1)OCO2)N1CCN(c2cccc(C(F)(F)F)c2)CC1 | -5.28
55 | CC1=C(C#N)C(=O)N(C)C(=O)/C1=C\NC12CN3CN(CN(C3)C1)C2 | -6.35
56 | Cc1cc(C(=O)NC(C)CCc2ccccc2)c2c(C)nn(-c3ccccc3)c2n1 (stereo not shown) | 2.12
57 | Cc1ccc(NC2=NCC(C)S2)c(C)c1 (stereo not shown) | 1.84
58 | CCN(CC)CCC(=O)C=C(C)C | -2.97
59 | Cc1cc(C(=O)NCc2ccc(F)cc2)no1 | -5.09
60 | Cc1ccc(C(C)C)c(Oc2ccc(-c3nc(N)nc(N)n3)cc2)c1 | 5.69
61 | O=C(Nc1ccn(Cc2ccc(F)cc2)n1)c1ccncc1 | 2.32
62 | c1ccc(-c2ncnn2-c2ccccc2)cc1 | -4.75
63 | Nc1c(C(=O)O)cc(O)c2c1C(=O)c1ccccc1C2=O | 0.98
64 | COc1cccc(/C=c2\sc3ncnn3c2=O)c1OC | 0.0069
65 | FC(F)(F)c1cc(-c2cccs2)n2ncc(-c3ccc(Cl)cc3)c2n1 | 0.0538
66 | Cc1cc(O)nc2c1cnn2C(C)c1ccccc1 (stereo not shown) | 2.89
67 | CC(C)(C)c1ccc(-c2nc(NC(=O)CSc3nnnn3-c3ccccc3)ns2)cc1 | -1.11
68 | Cc1cccc(CCNc2nnc3c4ccccc4n(C)c3n2)c1 | 1.1
69 | CC1(C)OC(=O)C(=Cc2ccc(N3CCCCC3)o2)C(=O)O1 | 0.035
70 | Cc1cccc(CCNc2nc3ccccc3n3nnnc23)c1 | -5.29
71 | Cc1ccc(CNC(=O)C2CCN(c3nnc(C)c4c(C)n(-c5ccc(Cl)cc5)nc34)CC2)o1 | 3.58
72 | Cc1cc(C)n(-c2c(-c3ccccc3)c(=O)n(C)c3ccccc23)n1 | 2.42
73 | COCCCN1C2=C(C(=O)CC(C)(C)C2)C(c2ccccc2)C2=C1CC(C)(C)CC2=O | -1.95
74 | CCC(C)NC(=O)NC1C(NC(=O)NC(C)CC)N(C)C(=O)N1C (stereo not shown) | 3.15
75 | Cc1cc(C)c(S(=O)(=O)N2CCN(c3nc4ccccc4nc3-n3nc(C)cc3C)CC2)c(C)c1 | -0.602

Row | Compound | % Inhibition @ 10 uM [%]
76 | COc1cc(NS(=O)(=O)c2ccc(NS(=O)(=O)c3ccccc3)cc2)nc(OC)n1 | 5.12
77 | CCN(CC)CCNC(=O)c1cc([N+](=O)[O-])c(N(C)C)cc1OC | -1.29
78 | Cc1cc(NC(=O)CNS(=O)(=O)c2ccc3nc(C)sc3c2)[nH]n1 | -4.24
79 | CCN(CC)CCNS(=O)(=O)c1ccc(-c2ccc(O)nn2)s1 | 2.96
80 | O=C(NCCO)c1cc2ccccc2oc1=O | -1.59
81 | C=CCn1c(SCC(C)C)nc2c1c(=O)n(C)c(=O)n2C | 2.36
82 | CSc1nc(-c2ccc(Cl)cc2)nn1S(=O)(=O)c1ccccc1 | -8.9
83 | Clc1ccc2nc(NCCN3CCOCC3)c3nncn3c2c1 | 4.33
84 | O=C(CSCc1ccccc1Cl)NCCSc1ccccn1 | -5
85 | COc1ccc(N2C(=O)CC(NCCc3ccc(OC)c(OC)c3)C2=O)cc1 (stereo not shown) | -1.28
86 | COc1cccc(OCCNC(=O)c2cc(C(F)(F)F)cc(C(F)(F)F)c2)c1 | 5.79
87 | CCOc1ccc(NC(=O)CC2(c3ccc(OC)cc3)C(=O)c3ccccc3C2=O)cc1 | -3.58
88 | Cc1cccc(-n2c(S)nnc2Cn2nc(C)c(Cl)c2C)c1 | 7.04
89 | CCN(Cc1ccc(OC)cc1)S(=O)(=O)c1nnc(NC(=O)/C=C/c2ccccc2)s1 | -5.9
90 | O=C(Nc1noc2ccccc12)c1ccc(Cl)c(Cl)c1 | 3.77
91 | Cc1cccn2cc(-c3ccc(NC(=O)CC(C)C)cc3)nc12 | 4.81
92 | COc1ccc2c(c1)C(C)=CC(C)(C)N2S(=O)(=O)c1ccc(NC(C)=O)cc1 | 14.9
93 | CCOc1ccccc1/C=C1\N=C(c2ccc(OC)cc2Cl)OC1=O | 3.1
94 | c1ccc(-c2nc3sc4c(ncn5cnnc45)c3c3c2CCC3)cc1 | 0.883
95 | COc1ccc(C2=NOC(C(=O)N3CCc4ccccc4C3)C2)cc1 (stereo not shown) | 6.22
96 | c1ccc(-n2nnnc2COc2cccc3ccccc23)cc1 | -4.64
97 | CCC1C(=O)NCCN1C(=O)c1ccc(Br)o1 (stereo not shown) | 2.41
98 | O=S(=O)(Cc1ccccc1)N1CCOCC1 | -2.35
99 | CCc1nc2sc3c(N4CCCC4)ncnc3c2c2c1CCCC2 | 3.27
100 | O=C(NCCc1ccccc1)c1cccc(F)c1 | -2.03
